Measurements as given in publication PMC7819943, “Rice protein-binding microarrays: a tool to detect cis-acting elements near promoter regions in rice”.
Some of the results follow.

molecular target: T1, OsWOX13 (Oryza sativa, UniProt Q5QMM3 1-267); experiment: protein-binding microarray (RPBM); PBS, 2% BSA, 51.3 ng/ul salmon testes DNA, 50 uM zinc acetate, 200 nM TF, 25 C, 1 h; high values mean tight binding; conditions: protein: recombinant; tags: N-terminal polyhistidine and DsRed monomer fusion (pET32a); label: CyDye5-dUTP incorporated in the synthesized complementary strand; 3' TTTTT single-stranded linker to array surface; dsDNA, one strand shown
T1 sequence: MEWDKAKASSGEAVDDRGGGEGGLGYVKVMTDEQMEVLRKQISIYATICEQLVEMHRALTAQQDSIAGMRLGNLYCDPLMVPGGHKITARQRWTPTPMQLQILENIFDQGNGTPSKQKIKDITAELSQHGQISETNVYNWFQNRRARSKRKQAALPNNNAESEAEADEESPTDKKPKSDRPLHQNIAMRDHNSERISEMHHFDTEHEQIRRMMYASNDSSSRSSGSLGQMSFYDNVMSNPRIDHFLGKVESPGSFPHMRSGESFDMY
Summary of the method: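 An Axon 4000B scanner gave the binding signal as per-feature fluorescence intensity in arbitrary units. This followed washing of a custom Agilent array that had been incubated for 1 h at 25 °C with 200 nM protein in PBS, 2% BSA, salmon testes DNA and 50 µM zinc acetate. The proteins were transcription factors fused at the N-terminus to polyhistidine and DsRed, expressed in E. coli BL21-CodonPlus and purified on Ni–NTA.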

Row | Sequence | binding signal
1 | ATCAAAATTTAGTAAGATTTATTTTGGCTATAATCTGAACCGGAGTCACCTAGTGCAG | 4650 fluorescence intensity (a.u.)
2 | TCGTTAATTTACTAGTGACTTCAAATGGTTTACGCAATTACGGAGTCACCTAGTGCAG | 19500 fluorescence intensity (a.u.)
3 | CGGCCAATTACGTTTCGTTAGTCGTTAAAACAGTTAACACCGGAGTCACCTAGTGCAG | 10100 fluorescence intensity (a.u.)
4 | AATCTTGATTAAACATAAATAAGTTCGACTAGAAGAAAGACGGAGTCACCTAGTGCAG | 4120 fluorescence intensity (a.u.)
5 | ATGATTTGTTCAGATCCATAGTAACAGAATAAGCTGCAACCGGAGTCACCTAGTGCAG | 10500 fluorescence intensity (a.u.)
6 | CGAACAAGCTGATTAACATGCATGATTTCCTAGTATTTCCCGGAGTCACCTAGTGCAG | 8230 fluorescence intensity (a.u.)
7 | ACATCAAAATTGGTAGTTTGGTTGAAATTAGAACGATGTGCGGAGTCACCTAGTGCAG | 4660 fluorescence intensity (a.u.)
8 | GGCCTTCCAGCAAAATACCAATCAAGAATTGAGTACCTAGCGGAGTCACCTAGTGCAG | 3850 fluorescence intensity (a.u.)
9 | TAATAAATTTGTCTCGCAATTTATAGGCGGAATCTGTAATCGGAGTCACCTAGTGCAG | 8200 fluorescence intensity (a.u.)
10 | TGTATGATTTATGTATAATTAGAGATATACAATCATATAACGGAGTCACCTAGTGCAG | 16900 fluorescence intensity (a.u.)
11 | GTTAGATTTATGTAATGAATAATTTGAAACTATTCCTCCTCGGAGTCACCTAGTGCAG | 27300 fluorescence intensity (a.u.)
12 | TTAATTTATTTGATGACTGGGGTGTCACGTAAGCGCCACGCGGAGTCACCTAGTGCAG | 37000 fluorescence intensity (a.u.)
13 | TCACATAAATAATCATTAACAAATTATAAAATTAGTACGACGGAGTCACCTAGTGCAG | 14800 fluorescence intensity (a.u.)
14 | TAAACAAATTGACAAATCCGCGAGATCCAATGAAGCACATCGGAGTCACCTAGTGCAG | 46200 fluorescence intensity (a.u.)
15 | CATGATTTTACTTTCTTTTCAGGTCTTAGGAGTGAGCTTCCGGAGTCACCTAGTGCAG | 9930 fluorescence intensity (a.u.)
16 | ATGAAAACAAACTCTTTGTGATTGGATAGTGGCCAGGGCACGGAGTCACCTAGTGCAG | 25600 fluorescence intensity (a.u.)
17 | GTAATATTATTGATTTATCCGTCGCTTTCGAAATGGGCACCGGAGTCACCTAGTGCAG | 22000 fluorescence intensity (a.u.)
18 | GTTTTGCCATTGAATTCTCTAATTGACAATTTAACATGCACGGAGTCACCTAGTGCAG | 21100 fluorescence intensity (a.u.)
19 | TTGATGACTTAATAAAATTTTGACAGTGCTAAAAGTTACCCGGAGTCACCTAGTGCAG | 23400 fluorescence intensity (a.u.)
20 | CTACTGGAGTAGATTGGTAGTTACTTGTATATGAGCATGCCGGAGTCACCTAGTGCAG | 8700 fluorescence intensity (a.u.)
21 | TCATATAATTGGATTTATAATTAATCACCAATACCAAACTCGGAGTCACCTAGTGCAG | 35300 fluorescence intensity (a.u.)

Row | Sequence | binding signal
22 | AAGATGTGAAATTTAATAAATTATCATCTATAGTCGATGACGGAGTCACCTAGTGCAG | 6380 fluorescence intensity (a.u.)
23 | GAGAAAATTTTCAAATGGATTGTGCATTACTTTCCAAAAGCGGAGTCACCTAGTGCAG | 4260 fluorescence intensity (a.u.)
24 | ATAAACAGACATCCTTCGAACTCCCAATCAGACCATCAGCCGGAGTCACCTAGTGCAG | 9970 fluorescence intensity (a.u.)
25 | CTCATAACTATTTGAGTGACATGCAAATAACAAGAGAACACGGAGTCACCTAGTGCAG | 3200 fluorescence intensity (a.u.)
26 | ATGTAATTTATGAAACTTACATTGTAACTTTTGAAGTTATCGGAGTCACCTAGTGCAG | 21200 fluorescence intensity (a.u.)
27 | TTAACTAATTATGCATTAATAAACCACCTTTCCAAGCACACGGAGTCACCTAGTGCAG | 36000 fluorescence intensity (a.u.)
28 | TTGGTTGAAATTGGAATGATGTGATGGAAAAGTTGAAAGTCGGAGTCACCTAGTGCAG | 4400 fluorescence intensity (a.u.)
29 | ATGAAGAATAAATATGATTAGTAGAGAAGAGAGATGATGTCGGAGTCACCTAGTGCAG | 5490 fluorescence intensity (a.u.)
30 | AAAATGATAGATTTAATGCCAAATTTATTATAAAACTACACGGAGTCACCTAGTGCAG | 19300 fluorescence intensity (a.u.)
31 | CAACTTTTCTACATTGCAATCAATTAATTTAGCTCTACAACGGAGTCACCTAGTGCAG | 7400 fluorescence intensity (a.u.)
32 | AGGATGGGTGTGGATGATTGAATATCTCTGTTCAGTGTTTCGGAGTCACCTAGTGCAG | 16000 fluorescence intensity (a.u.)
33 | CGAGTTAAATTTGACGAGGGATTAGATTTACACTCGATTTCGGAGTCACCTAGTGCAG | 18700 fluorescence intensity (a.u.)
34 | TGCAGTTATGGCATGATTGGTATCTAGTCGACGCAGAATTCGGAGTCACCTAGTGCAG | 17800 fluorescence intensity (a.u.)
35 | CAAGAAAATTTTGTTTGATCAGACTTGTCAAGTAAAACAACGGAGTCACCTAGTGCAG | 4250 fluorescence intensity (a.u.)
36 | TCTGTGTTCTGCTGTTAATTAACTAACCTCAGACGACGTCCGGAGTCACCTAGTGCAG | 8270 fluorescence intensity (a.u.)
37 | CAAATGATTGTAATTTATGCATATTTCTCAGCAAAACTGACGGAGTCACCTAGTGCAG | 24900 fluorescence intensity (a.u.)
38 | TAATAATTTAATAGAGAAAAGGTTATAGTTAATTGCTTGCCGGAGTCACCTAGTGCAG | 24700 fluorescence intensity (a.u.)
39 | TGCTGTTAATCAGATGCAATTTCTACAACTGAGCAGTTTCCGGAGTCACCTAGTGCAG | 5020 fluorescence intensity (a.u.)
40 | CCCATGATTTGAAGCCAAGCCAAACCCCACCCCACTCATACGGAGTCACCTAGTGCAG | 24700 fluorescence intensity (a.u.)
41 | AACAGACTATTAAGAAACTTAATTTACAGCTTCATTTTCTCGGAGTCACCTAGTGCAG | 6670 fluorescence intensity (a.u.)
42 | ACCAGGAGATTTAATTTGGTGCCACAATCGGGTTCCGACGCGGAGTCACCTAGTGCAG | 4200 fluorescence intensity (a.u.)
